Test results published in the supplement of paper PMC3334620.
The full ranking holds about 33,000 sequences; the median of “E-score (-0.5 to 0.5)” is about -0.013, and the highest 2% start at about 0.3. Some of the results follow.

target: T1, Msn1 (UniProt P22148); experiment: PBM E-score (8-mer binding enrichment) (E-score (-0.5 to 0.5)); higher = stronger / more preferred TF binding; most listed sequences are background and not binding sites; details: protein concentration: 200 nM; construct: GST-full length
T1 sequence: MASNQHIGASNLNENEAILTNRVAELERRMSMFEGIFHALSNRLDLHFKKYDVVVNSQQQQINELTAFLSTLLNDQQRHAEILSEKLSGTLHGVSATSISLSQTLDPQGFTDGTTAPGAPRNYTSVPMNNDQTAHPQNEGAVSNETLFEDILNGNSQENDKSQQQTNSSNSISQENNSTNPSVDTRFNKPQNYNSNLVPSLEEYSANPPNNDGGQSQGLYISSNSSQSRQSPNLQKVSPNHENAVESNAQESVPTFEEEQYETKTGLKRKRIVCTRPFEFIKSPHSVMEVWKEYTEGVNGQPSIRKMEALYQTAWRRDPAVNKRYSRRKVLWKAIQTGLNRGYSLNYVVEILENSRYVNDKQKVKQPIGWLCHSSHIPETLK
In short: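 E-scores (a modified Wilcoxon-Mann-Whitney statistic) were assigned by the Universal PBM Analysis Suite to every ungapped eight-base word pooled with its reverse complement. The input came from universal all-10-mer Agilent arrays made double-stranded by primer extension and probed with GST-tagged yeast transcription factors at about 100-200 nM. Fluorescent anti-GST detected bound protein, and masliner normalised the scans.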

Sequence | PBM E-score
AGGTGAAT | 0.0469
CGATAGCC | -0.0589
CCGAAAGG | -0.0079
CACGACGG | 0.178
GAGAGCTC | -0.248
CTCCACTA | 0.0243
AATCGCGT | 0.0236
AGATCCAG | -0.0622
ATCAGTTC | -0.0766
AATCGGTA | -0.049
AGTTGGAA | 0.0352
CATTCGCA | 0.0837
GAATGTGA | 0.076
TCACCTAA | 0.102
AAGGCCCT | -0.0795
CCCACCAA | -0.228
CTCAAAGC | 0.015
AGTCGCAA | 0.036
ATTAATAG | 0.0264
AGGGTCAT | -0.0217
AGCGTACG | -0.163
GTGTAGTA | 0.00943
CTGGCTGA | -0.201
AACGTCGT | -0.098
CTAGAACA | 0.133

Sequence | PBM E-score
CCGTAAGA | -0.174
ACCTTAGC | -0.0675
GGGCCCCC | -0.45
AACCCCGA | 0.0744
TGAGCGAA | 0.0506
TGGTCCAA | -0.0938
CTAGGGAG | -0.254
AGGTAGGA | -0.0106
GACCTAAA | 0.0444
ACACGATA | 0.16
GAAAGCAA | 0.0864
CCCGTCCC | -0.321
GTAACTGA | -0.136
CGAGCATA | -0.128
CAAGGCTC | -0.118
AAGTGCCA | -0.104
GGATGCAA | -0.137
CGAAAAAC | 0.103
GTTGTGGA | 0.0318
TCAACCGA | 0.0857
CAGTATGG | 0.0977
AAACTGGA | 0.0493
CATTACAA | 0.153
AAACATAT | 0.258
CCACAGTC | -0.296

Sequence | PBM E-score
CAGCGTAA | -0.0415
CGATCGTC | 0.0286
ATAGGGGC | -0.221
AGAGACGA | -0.00333
ACCGTTCC | -0.00636
CCGTGAGC | -0.1
CACCAGTA | -0.0132
GCAGTGGC | -0.202
AAACGTCG | 0.132
AATTATGT | 0.301
GAACTGGC | -0.223
ACTACGCG | -0.0611
CCGAATCG | 0.0428
AGACCACA | -0.0688
AGAAGAGC | -0.0669
CGAAGAGA | 0.0234
AGGCATCA | -0.111
CCGCACCC | -0.301
CGCCGACC | -0.126
ACGCCCAG | -0.176
TCAGATAA | 0.132
AGATCGCA | -0.0555
AACAGTCC | -0.132
GGCGGGCA | -0.0685
ACGGACCT | 0.0608

Sequence | PBM E-score
AGGAAGCG | -0.113
AGAAGGTG | -0.044
GGGGTAAA | 0.033
AGTAGGAG | -0.296
AGAAAGCT | 0.105
GGGACTGA | -0.182
CTGGATGA | -0.114
CCGCTAGA | -0.187
ATACACTG | 0.0602
GCTGGGAC | 0.228
ACACTCGG | 0.183
GACATACC | 0.4
AATCTTTC | 0.134
GCACCCTA | -0.242
AATCCGTA | -0.107
AATCACTG | 0.00361
GTATGAAC | -0.0402
CGGTGCGC | -0.133
CACTGCTC | -0.0559
CACGTCTA | 0.0316
GGTTATAC | -0.0112
ATATACCC | 0.23
CGCGAGCG | -0.171
ATGAGAAT | 0.0723
AAGACACT | 0.163

Sequence | PBM E-score
AGGTCTGG | -0.221
CGCACGAG | -0.274
CTATACAG | -0.0109
AGTTCTTA | 0.105
ACAGGTCG | -0.0517
AACCAACC | 0.0193
ATAGTTAC | 0.0597
AATTGTGG | 0.134
CTGTAGGC | -0.107
TCTCATCA | 0.118
ATTAATCG | 0.134
GGCTCTGA | -0.0115
ATCACTTA | -0.0508
GTGGGGCA | -0.102
CTACACTA | -0.196
GGTGTAAA | -0.184
CTTACTTA | 0.00884
CACGTTAC | -0.1
CTGTGTTA | 0.127
GGTTTCTA | -0.0691
ATTATCCA | 0.124
GTCGTTCA | -0.00823
GATTTAAC | 0.156
CTACGGCA | 0.0653
CCGGCCAA | -0.0313

Sequence | PBM E-score
AATGCCAG | -0.0323
CCTGCATC | -0.0199
ACGATACT | -0.0977
ATGCGTAG | -0.201
CGGCGAGA | 0.05
ATGCCACC | -0.326
CTACATAC | 0.0824
ATTATAGC | -0.0661
GCTGGCGA | -0.343
CAGTGGAC | 0.0261
CGGAGCAG | -0.0649
ATGCCTCA | -0.0924
TAGTCGAA | 0.124
AGTACGAA | 0.206
CGCCAGCA | -0.196
TATATGCA | 0.102
GTAGTAGA | -0.00365
CAACAACA | 0.135
CCCAGCGG | -0.119
ATTGGGCC | -0.0889
CGGCATTA | 0.203
GCATGGCC | -0.123
GCCTTCCC | -0.35
TCGTACGA | 0.167
AACCACGG | -0.104

Sequence | PBM E-score
ATATAATC | 0.182
CAATGGGG | -0.111
CTGGGGGA | -0.285
CGAACACC | -0.0131
CATAGTTC | -0.00808
AGGAGGAC | -0.0659
CCGCTCTA | 0.0134
CAGGCTCC | -0.27
AACAAAAT | 0.247
AATGAACG | 0.0599
AATACGAG | 0.0128
AACCATCC | -0.0425
AACCTACC | -0.195
CCCGGCCC | -0.299
TATAAAGA | 0.174
ACTAAGTC | -0.0523
ACTATCGC | -1e-05
AAAGCTGT | 0.0549
GCCAATAA | 0.192
CTTCTTAC | -0.0174
AGCTAGGG | -0.163
ACTCTCGA | -0.0168
